Results on one compound are retold here after publication PMC11279629, “Identification of Dihydropyrazolo[1,5-a]pyrazin-4(5H)-ones as Cyclic Products of β-Amidomethyl Vinyl Sulfone Alphavirus Cysteine Protease Inhibitors” (Pharmaceuticals, 2024).

In the assay the target is CHIKV nsP2 protease (Chikungunya virus, UniProt Q8JUX6). The experiment in a line: biochemical.

As for `CCOc1ccccc1-c1cc2n(n1)C(CS(C)(=O)=O)CNC2=O` (stereo not shown) [Compound 2, 2-(2-ethoxyphenyl)-7-((methylsulfonyl)methyl)-6,7-dihydropyrazolo[1,5-a]pyrazin-4(5H)-one], the IC50 (commonly the concentration needed to halve the response being measured) is greater than 200 µM.
